Measured values: PMC4571948, “Identification of a Novel Sequence Motif Recognized by the Ankyrin Repeat Domain of zDHHC17/13 S-Acyltransferases*” (The Journal of Biological Chemistry, 2015)
These are yes or no findings as the source states them, for the method shown. Binding seen in cells or lysates may run through a third protein. Some entries that bind do so weakly or less than the wild type. Where a sequence is shown, tags or fusion partners need not be part of it. One block for each molecule: values may come before it.

Protein sequences, listed by entry. Tags and fused reporters are not part of them. Residues count along the entry.
UniProt P60881: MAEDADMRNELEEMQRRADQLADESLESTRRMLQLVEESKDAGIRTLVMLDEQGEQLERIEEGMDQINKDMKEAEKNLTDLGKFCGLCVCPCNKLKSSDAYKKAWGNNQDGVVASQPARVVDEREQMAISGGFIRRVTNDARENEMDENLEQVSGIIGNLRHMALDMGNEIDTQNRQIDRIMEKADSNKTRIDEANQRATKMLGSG
UniProt Q80TN5, residues 1-300: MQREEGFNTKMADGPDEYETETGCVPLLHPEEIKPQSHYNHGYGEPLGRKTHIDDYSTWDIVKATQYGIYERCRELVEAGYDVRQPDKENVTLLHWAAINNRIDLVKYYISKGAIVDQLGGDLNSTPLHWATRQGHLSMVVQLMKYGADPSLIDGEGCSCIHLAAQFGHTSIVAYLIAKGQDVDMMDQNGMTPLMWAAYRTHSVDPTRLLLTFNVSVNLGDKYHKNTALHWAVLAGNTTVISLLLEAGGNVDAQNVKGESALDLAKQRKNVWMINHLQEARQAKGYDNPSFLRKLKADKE

Tests used:
[1] = target: T1, GST-SNAP25b(111–120) (rat); test: pull-down; Fig. 5B: 125 μg GST fusion protein on glutathione-Sepharose with HEK293T lysates of HA- or FLAG-tagged proteins (Tris buffer, 0.5% Triton X-100), overnight at 4 °C, washes with Tris buffer; HA or FLAG blot; only the target purified
T1 sequence: GVVASQPARV

[2] = target: GST-SNAP25bFL (full-length GST-tagged SNAP25b) (rat) (UniProt P60881); test: pull-down; Fig. 5A: 125 μg GST fusion protein on glutathione-Sepharose with HEK293T lysates of HA-tagged proteins (Tris buffer, 1% Triton X-100), overnight at 4 °C, washes with Tris buffer with 0.5% Triton X-100; HA blot; only the target purified
[3] = target: T1, GST-SNAP25b(111–120) (rat); test: as above
GST-IRAP(78–109) = target: T2, GST-IRAP(78–109) (UniProt P97629); test: pull-down; Fig. 5B: 125 μg GST fusion protein on glutathione-Sepharose with HEK293T lysates of HA- or FLAG-tagged proteins (Tris buffer, 0.5% Triton X-100), overnight at 4 °C, washes with Tris buffer; HA or FLAG blot; only the target purified
T2 sequence: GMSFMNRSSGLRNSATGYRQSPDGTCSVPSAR

binding [1]: binds
binding [2]: binds
binding [3]: binds
Molecule: HA-zD17(301X) (HA-tagged AR-containing fragment of zDHHC17) (from UniProt Q80TN5 1-300) (domain or fragment)

binding [1]: binds
binding [2]: binds
binding [3]: binds
B1: HA-zD13(290X) (HA-tagged AR-containing fragment of zDHHC13) (domain or fragment, UniProt Q9CWU2 1-289)
chain: MEGPGLGSQCRNHSHGSHVPGFGRHGICVHENKELAKAKEILPLIEDSSNCDIVKATQYGIFERCKELVEAGYDVRQPDRENVSLLHWAAINNRLELVKFYISKGAVIDQLGGDLNSTPLHWAIRQGHLPMVILLLQHGADPTLIDGEGFSSIHLAVLFQHMPIIAYLISKGQSVNMTDVNGQTPLMLSAYKVIGPEPTGFLLKFNPSLSVVDKTHQNTPLHWAVAAGNVSAVDKLLEAGSSLDIRNAKGETPLDMALQSKNQLISHMLRTEAKMRANKQFRLWRWLHK

binding (GST-IRAP(78–109)): binds
binding [1]: no binding
B2: FLAG-TANK2 (TAnkyrase-2) (enzyme, UniProt Q9H2K2 1-1166)
chain: MSGRRCAGGGAACASAAAEAVEPAARELFEACRNGDVERVKRLVTPEKVNSRDTAGRKSTPLHFAAGFGRKDVVEYLLQNGANVQARDDGGLIPLHNACSFGHAEVVNLLLRHGADPNARDNWNYTPLHEAAIKGKIDVCIVLLQHGAEPTIRNTDGRTALDLADPSAKAVLTGEYKKDELLESARSGNEEKMMALLTPLNVNCHASDGRKSTPLHLAAGYNRVKIVQLLLQHGADVHAKDKGDLVPLHNACSYGHYEVTELLVKHGACVNAMDLWQFTPLHEAASKNRVEVCSLLLSYGADPTLLNCHNKSAIDLAPTPQLKERLAYEFKGHSLLQAAREADVTRIKKHLSLEMVNFKHPQTHETALHCAAASPYPKRKQICELLLRKGANINEKTKEFLTPLHVASEKAHNDVVEVVVKHEAKVNALDNLGQTSLHRAAYCGHLQTCRLLLSYGCDPNIISLQGFTALQMGNENVQQLLQEGISLGNSEADRQLLEAAKAGDVETVKKLCTVQSVNCRDIEGRQSTPLHFAAGYNRVSVVEYLLQHGADVHAKDKGGLVPLHNACSYGHYEVAELLVKHGAVVNVADLWKFTPLHEAAAKGKYEICKLLLQHGADPTKKNRDGNTPLDLVKDGDTDIQDLLRGDAALLDAAKKGCLARVKKLSSPDNVNCRDTQGRHSTPLHLAAGYNNLEVAEYLLQHGADVNAQDKGGLIPLHNAASYGHVDVAALLIKYNACVNATDKWAFTPLHEAAQKGRTQLCALLLAHGADPTLKNQEGQTPLDLVSADDVSALLTAAMPPSALPSCYKPQVLNGVRSPGATADALSSGPSSPSSLSAASSLDNLSGSFSELSSVVSSSGTEGASSLEKKEVPGVDFSITQFVRNLGLEHLMDIFEREQITLDVLVEMGHKELKEIGINAYGHRHKLIKGVERLISGQQGLNPYLTLNTSGSGTILIDLSPDDKEFQSVEEEMQSTVREHRDGGHAGGIFNRYNILKIQKVCNKKLWERYTHRRKEVSEENHNHANERMLFHGSPFVNAIIHKGFDERHAYIGGMFGAGIYFAENSSKSNQYVYGIGGGTGCPVHKDRSCYICHRQLLFCRVTLGKSFLQFSAMKMAHSPPGHHSVTGRPSVNGLALAEYVIYRGEQAYPEYLITYQIMRPEGMVDG
